Assay results published in patent US11000038B2, “Pyridone compounds and agricultural and horticultural fungicides containing the same as active ingredients” (priority 2017, dated 2021).

Tests used:
[1] = system: rice blast fungi (Magnaporthe grisea); format: in vivo; conditions: rice blast, spray treatment of rice plants
[2] = system: tomato late blight fungi (Phytophthora infestans); format: in vivo; conditions: tomato late blight, spray treatment of tomato plants
[3] = system: cucumber anthracnose fungi (Colletotrichum orbiculare); experiment: Test Example H: cucumber anthracnose, spray treatment of cucumber plants; conditions: cucumber anthracnose, 250 ppm spray (2.5 ml/pot), 6 to 10 days after inoculation

| SMILES | Test A control value [1] | Test F control value [2] | Test H control value [3] |
| --- | --- | --- | --- |
| COc1cc(F)c(-c2c(C)c(=O)c(Br)cn2-c2ccccc2C)c(F)c1 [Compound 266] | H (H shows the control value of more than 50%) | L (L shows the control value of 50% or less) | H (H shows the control value of more than 50%) |
| C#CCn1cc(C)c(=O)c(C)c1-c1c(F)cc(F)cc1F [Compound 267] | L (L shows the control value of 50% or less) | L (L shows the control value of 50% or less) | H (H shows the control value of more than 50%) |
| C=CCn1cc(C)c(=O)c(C)c1-c1c(F)cc(F)cc1F [Compound 268] | L (L shows the control value of 50% or less) | L (L shows the control value of 50% or less) | L (L shows the control value of 50% or less) |
| CSCn1cc(C)c(=O)c(C)c1-c1c(F)cc(F)cc1F [Compound 269] | L (L shows the control value of 50% or less) | L (L shows the control value of 50% or less) | L (L shows the control value of 50% or less) |
| COc1ccc(-n2cc(Cl)c(=O)c(Cl)c2-c2c(F)cc(F)cc2F)c(C)c1 [Compound 270] | H (H shows the control value of more than 50%) | L (L shows the control value of 50% or less) | H (H shows the control value of more than 50%) |
| Cc1ccccc1-n1cc(C)c(=O)c(C)c1-c1ccncc1 [Compound 271] | H (H shows the control value of more than 50%) | L (L shows the control value of 50% or less) | L (L shows the control value of 50% or less) |
| C#Cc1cn(-c2ccccc2C)c(-c2c(F)cc(F)cc2F)c(C)c1=O [Compound 272] | H (H shows the control value of more than 50%) | L (L shows the control value of 50% or less) | H (H shows the control value of more than 50%) |
| Cc1cc(F)ccc1-n1cc(Br)c(=O)c(Br)c1-c1c(F)cc(F)cc1F [Compound 273] | H (H shows the control value of more than 50%) | L (L shows the control value of 50% or less) | H (H shows the control value of more than 50%) |
| Cc1cc(F)ccc1-n1cc(Br)c(=O)c(Cl)c1-c1c(F)cc(F)cc1F [Compound 274] | H (H shows the control value of more than 50%) | L (L shows the control value of 50% or less) | H (H shows the control value of more than 50%) |
| Cc1cc(F)ccc1-n1cc(Cl)c(=O)c(Br)c1-c1c(F)cc(F)cc1F [Compound 275] | H (H shows the control value of more than 50%) | L (L shows the control value of 50% or less) | H (H shows the control value of more than 50%) |
| Cc1cc(F)ccc1-n1cc(Cl)c(=O)c(Cl)c1-c1c(F)cc(F)cc1F [Compound 276] | H (H shows the control value of more than 50%) | L (L shows the control value of 50% or less) | H (H shows the control value of more than 50%) |
| CC(=O)c1cn(-c2ccccc2C)c(-c2c(F)cc(F)cc2F)c(C)c1=O [Compound 277] | L (L shows the control value of 50% or less) | L (L shows the control value of 50% or less) | H (H shows the control value of more than 50%) |
| Cc1ccccc1-n1cc(F)c(=O)c(C)c1-c1c(F)cc(F)cc1F [Compound 278] | H (H shows the control value of more than 50%) | L (L shows the control value of 50% or less) | H (H shows the control value of more than 50%) |
| COc1cc(F)c(-c2c(Cl)c(=O)c(Br)cn2-c2cc(OC)ccc2C)c(F)c1 [Compound 279] | H (H shows the control value of more than 50%) | H (H shows the control value of more than 50%) | H (H shows the control value of more than 50%) |
| Cc1ccc(O)cc1-n1cc(Br)c(=O)c(Cl)c1-c1c(F)cc(F)cc1F [Compound 280, 5-bromo-3-chloro-1-(5-hydroxy-2-methylphenyl)-2-(2,4,6-trifluorophenyl)pyridin-4(1H)-one] | H (H shows the control value of more than 50%) | L (L shows the control value of 50% or less) | H (H shows the control value of more than 50%) |
| CCc1cn(CC(C)C)c(-c2c(F)cc(F)cc2F)c(CC)c1=O [Compound 281] | H (H shows the control value of more than 50%) | L (L shows the control value of 50% or less) | H (H shows the control value of more than 50%) |

| SMILES | Test A control value [1] | Test F control value [2] | Test H control value [3] |
| --- | --- | --- | --- |
| COCCOc1ccc(C)c(-n2cc(Br)c(=O)c(Cl)c2-c2c(F)cc(F)cc2F)c1 [Compound 282] | H (H shows the control value of more than 50%) | L (L shows the control value of 50% or less) | H (H shows the control value of more than 50%) |
| COCCOc1ccc(C)c(-n2cc(Br)c(=O)c(Cl)c2-c2c(F)cc(OC)cc2F)c1 [Compound 283] | H (H shows the control value of more than 50%) | L (L shows the control value of 50% or less) | H (H shows the control value of more than 50%) |
| Cc1ccc(OCC#N)cc1-n1cc(Br)c(=O)c(Cl)c1-c1c(F)cc(F)cc1F [Compound 284] | H (H shows the control value of more than 50%) | L (L shows the control value of 50% or less) | H (H shows the control value of more than 50%) |
| COCOc1ccc(C)c(-n2cc(Br)c(=O)c(Cl)c2-c2c(F)cc(F)cc2F)c1 [Compound 285, 5-bromo-3-chloro-1-(5-(methoxymethoxy)-2-methylphenyl)-2-(2,4,6-trifluorophenyl)pyridin-4(1H)-one] | H (H shows the control value of more than 50%) | L (L shows the control value of 50% or less) | H (H shows the control value of more than 50%) |
| COCOc1ccc(C)c(-n2cc(Br)c(=O)c(Cl)c2-c2c(F)cc(OC)cc2F)c1 [Compound 286, 5-bromo-3-chloro-2-(2,6-difluoro-4-methoxyphenyl)-1-(5-(methoxymethoxy)-2-methylphenyl)pyridin-4(1H)-one] | H (H shows the control value of more than 50%) | H (H shows the control value of more than 50%) | H (H shows the control value of more than 50%) |
| Cc1ccccc1-n1cc(C)c(=O)c(C)c1-c1ccoc1 [Compound 287] | L (L shows the control value of 50% or less) | L (L shows the control value of 50% or less) | L (L shows the control value of 50% or less) |
| Cc1cccc(F)c1-n1cc(Br)c(=O)c(Br)c1-c1c(F)cc(F)cc1F [Compound 288] | H (H shows the control value of more than 50%) | L (L shows the control value of 50% or less) | L (L shows the control value of 50% or less) |
| Cc1cccc(F)c1-n1cc(Br)c(=O)c(Cl)c1-c1c(F)cc(F)cc1F [Compound 289] | H (H shows the control value of more than 50%) | L (L shows the control value of 50% or less) | H (H shows the control value of more than 50%) |
| Cc1cccc(F)c1-n1cc(Cl)c(=O)c(Br)c1-c1c(F)cc(F)cc1F [Compound 290] | L (L shows the control value of 50% or less) | L (L shows the control value of 50% or less) | H (H shows the control value of more than 50%) |
| COCCOc1ccc(C)c(-n2cc(C)c(=O)c(C)c2-c2c(F)cc(OC)cc2F)c1 [Compound 316] | H (H shows the control value of more than 50%) | L (L shows the control value of 50% or less) | H (H shows the control value of more than 50%) |
| CCc1cn(-c2ccccc2C)c(-c2c(F)cc(F)cc2F)c(CC)c1=O [Compound 317] | H (H shows the control value of more than 50%) | L (L shows the control value of 50% or less) | H (H shows the control value of more than 50%) |
| Cc1cccc(Cl)c1-n1cc(Cl)c(=O)c(Br)c1-c1c(F)cc(F)cc1F [Compound 318] | H (H shows the control value of more than 50%) | L (L shows the control value of 50% or less) | H (H shows the control value of more than 50%) |
| Cc1cccc(Cl)c1-n1cc(Cl)c(=O)c(Cl)c1-c1c(F)cc(F)cc1F [Compound 319] | L (L shows the control value of 50% or less) | L (L shows the control value of 50% or less) | L (L shows the control value of 50% or less) |
| Cc1c(-n2cc(Br)c(=O)c(Cl)c2-c2c(F)cc(F)cc2F)cccc1[N+](=O)[O-] [Compound 320] | H (H shows the control value of more than 50%) | L (L shows the control value of 50% or less) | L (L shows the control value of 50% or less) |
| Cc1c(-n2cc(Br)c(=O)c(Br)c2-c2c(F)cc(F)cc2F)cccc1[N+](=O)[O-] [Compound 321] | H (H shows the control value of more than 50%) | L (L shows the control value of 50% or less) | L (L shows the control value of 50% or less) |
